Measurements published in US9522171B2 (priority 2010, dated 2016).
Like-named read-outs stand apart in the source and are kept apart here.

Legend:
human H1N1 virus [1] = system: human H1N1 virus
human H1N1 virus [2] = details: low inoculum (10^4 PFU) groups (FIG. 17)
human H1N1 virus [3] = system: human H1N1 virus; remark: listed apart in the source
[4] = 10^6 PFU, BAL Day 3, compared with vehicle
[5] = low inoculum (10^4 PFU), compared to sham (mock) treated animals

For “EV576: Lipocalin protein from salivary glands of the tick Ornithodoros moubata, sequence of FIG. 2; binds complement C5 and LTB4”, the “total protein in BAL fluid” value (human H1N1 virus [1]; 10^4 PFU, BAL Day 6, i.p., compared with vehicle) was “significantly lower”, the IL-6 level (human H1N1 virus [1]; 10^4 PFU, compared with EV131 or vehicle (FIG. 9)) was “Reduction” and the CXC2 level (human H1N1 virus [1]; 10^4 PFU, compared with EV131 or vehicle (FIG. 10)) was “Reduction”. For the same substance, the IL-1β (human H1N1 virus [1]; 10^4 PFU, compared with EV131 or vehicle (FIG. 11)) was “Reduction”, the “neutrophils per 100 mg lung tissue” value (human H1N1 virus [1]; 10^4 PFU, compared with EV131 or vehicle (FIG. 15)) was “Relative reduction” and the “total cells in BAL fluid” value (human H1N1 virus [1]; [4]) was “Reduction”. For the same substance, the “total protein in BAL fluid” value (human H1N1 virus [1]; [4]) was “Reduction”, the “neutrophils per 100 mg lung tissue” value (human H1N1 virus [1]; 10^6 PFU, compared with EV131 or vehicle (FIG. 16)) was “Relative reduction” and the IL-6 level (human H1N1 virus [1]; 10^6 PFU, compared with vehicle (FIG. 12)) was “Reduction”. For the same substance, the CXC2 level (human H1N1 virus [1]; 10^6 PFU, compared with vehicle (FIG. 13)) was “Reduction”, the IL-1β (human H1N1 virus [1]; 10^6 PFU, compared with vehicle (FIG. 14)) was “Reduction” and the “CXCL2 level in BAL fluid” value (human H1N1 virus [1]; [5]) was “not significantly different”. The “IL-1β level in BAL fluid” value (human H1N1 virus [1]; [5]) was “not significantly different”, the “IL-6 level in BAL fluid” value (human H1N1 virus [1]; [5]) was “not significantly different” and the “sum of histopathological scores of lung inflammation (epithelial damage and inflammation)” value (human H1N1 virus [2]) was “reduced epithelial damage and inflammation”. The “rise in C5a level in BALF” value (human H1N1 virus [3]; high inoculum (10^6 PFU), day 3 (FIG. 22)) was “significantly attenuated rise” and the “rise in C5a level in BALF” value (human H1N1 virus [3]; low inoculum (10^4 PFU), day 6 (FIG. 21)) was “significantly attenuated rise”.
